Assay results: the BET-seq Pho4 binding data (Le et al. 2018)
This is one part of the list. The energies were worked out here from pooled read counts, against the library average; single values are noisy.

molecular target: T1, Pho4 (S. cerevisiae) (UniProt P07270); test: relative binding free energy (BET-seq); higher = weaker binding; conditions: reference: library average
T1 sequence: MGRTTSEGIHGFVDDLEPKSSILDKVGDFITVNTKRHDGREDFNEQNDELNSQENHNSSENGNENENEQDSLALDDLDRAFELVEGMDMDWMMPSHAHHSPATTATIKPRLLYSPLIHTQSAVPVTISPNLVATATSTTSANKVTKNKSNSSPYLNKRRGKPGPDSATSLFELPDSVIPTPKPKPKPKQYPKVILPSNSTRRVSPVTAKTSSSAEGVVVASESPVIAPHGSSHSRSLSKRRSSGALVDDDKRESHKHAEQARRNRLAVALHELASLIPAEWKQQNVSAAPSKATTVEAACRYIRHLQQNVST

Relative binding free energy, 0.15 kcal/mol:
GTACTCACGTGGCGGT
GTTAACACGTGTTAGG
GTAAGCACGTGAGTGG
AGTGACACGTGTAAAT
AATTGCACGTGATGAG
GTGTGCACGTGATGAG
GGTTCCACGTGGATTT
GGCATCACGTGTAGTG
CGTTTCACGTGGTGGG

Relative binding free energy, -0.24 kcal/mol:
TACCGCACGTGGTGTG
TGTACCACGTGGGCTG
CAGTCCACGTGGGTGG

Relative binding free energy, -0.16 kcal/mol:
TGTAGCACGTGGTACG
ATAAACACGTGGGGCT
CGCGGCACGTGGGTGT
GGAGGCACGTGGTACT
CGTGACACGTGGGCTT
TGGAGCACGTGGCTAG

Relative binding free energy, -0.04 kcal/mol:
CGCTGCACGTGTTTGT
GAAGGCACGTGTGTGT
CTAGACACGTGTTGTG
CATTACACGTGGGTTT

Relative binding free energy, 0.52 kcal/mol:
TCGATCACGTGAATGT

Relative binding free energy, -0.05 kcal/mol:
ATGAGCACGTGTCGGT
AATGGCACGTGGTGAT
TTGGTCACGTGCTTAA
TTAGGCACGTGTTCTT
GGAAGCACGTGTACGT
GAAGGCACGTGCTTGG
GGCTGCACGTGGGATT

Relative binding free energy, -0.1 kcal/mol:
TATAGCACGTGTTCGT
TGCTACACGTGGGGGT

Relative binding free energy, -0.21 kcal/mol:
ATTGGCACGTGCGTGT

Relative binding free energy, -0.13 kcal/mol:
AGTGACACGTGGGGAG
TAGTGCACGTGCGCGG
ATTAACACGTGGTATA

Relative binding free energy, 0.12 kcal/mol:
TTGGACACGTGGATGA
GCGGTCACGTGGGAAG
GCGGTCACGTGTGCGT
GGCAACACGTGTTTTT
GAGTACACGTGTTTGG
GCGGGCACGTGACTGG
TGATACACGTGTATAA

Relative binding free energy, 0.1 kcal/mol:
GGTTCCACGTGTTGCG
GTCTGCACGTGTTAGG
CGTTACACGTGTGTTT
CTCATCACGTGTTTGT

Relative binding free energy, 0.25 kcal/mol:
TTCTTCACGTGCGTTT

Relative binding free energy, 0.2 kcal/mol:
GGGCTCACGTGGAGGA
ATGTTCACGTGGTACG
ATGTTCACGTGCCGTT
TTCGGCACGTGAGGAT

Relative binding free energy, -0.17 kcal/mol:
GGGCGCACGTGGTCAG

Relative binding free energy, -0.23 kcal/mol:
TGTGCCACGTGGTGGG

Relative binding free energy, 0.22 kcal/mol:
TATTGCACGTGAATGT
AGCTTCACGTGTCGTT
GGTTACACGTGCTGGA

Relative binding free energy, -0.37 kcal/mol:
ATGGGCACGTGGGCGC

Relative binding free energy, -0.3 kcal/mol:
AGACGCACGTGCGGGT

Relative binding free energy, 0.57 kcal/mol:
TAGTTCACGTGACAGA

Relative binding free energy, 0.34 kcal/mol:
GGGGTCACGTGGATCG
TTTGGCACGTGAAATT

Relative binding free energy, 0.28 kcal/mol:
ATGATCACGTGATGTA
AAATTCACGTGTGGGG
TTGTACACGTGATCTG
GGTTTCACGTGGACCG
GAAAACACGTGATTGG
TGTCTCACGTGTAGCG
GTAGTCACGTGTGATT

Relative binding free energy, 0.09 kcal/mol:
GTGATCACGTGGCAGT
AGCTGCACGTGTGTAA
TGGGTCACGTGGGGTC

Relative binding free energy, -0.01 kcal/mol:
GATGGCACGTGGTATG
GTTGACACGTGCAGGT
GGTAGCACGTGGAGCT
AGTGTCACGTGGGAAA
CGGGCCACGTGATGGT
TGATGCACGTGGCGAG
GTAAACACGTGTGTGT
CGTCACACGTGGAGGT

Relative binding free energy, 0.01 kcal/mol:
TGGAGCACGTGTGAGA
AATTGCACGTGGATGC
AGCGGCACGTGCTTAG
AGCGGCACGTGTACGT
CGTTACACGTGGTTAG

Relative binding free energy, 0.11 kcal/mol:
CGTGGCACGTGAGCGG
TGGGTCACGTGGGTTT
GCAGACACGTGTGGGT
GACGTCACGTGAGGTG

Relative binding free energy, 0.33 kcal/mol:
ACTTTCACGTGGATAG
TGTTACACGTGTAAAT

Relative binding free energy, -0.26 kcal/mol:
TTTGCCACGTGGGTAA
ATTCGCACGTGCGTGG
TTGCGCACGTGGGGTC

Relative binding free energy, 0.04 kcal/mol:
GGGTGCACGTGTATGT
AGGATCACGTGGGCTG
TGGGACACGTGTGTGG
TAGAGCACGTGTGAAG

Relative binding free energy, 0.3 kcal/mol:
TAGTTCACGTGTGGAG

Relative binding free energy, 0.14 kcal/mol:
ATGTGCACGTGTAACT
GATGTCACGTGGTACG
GGGATCACGTGGGCCT
AGGGTCACGTGGTTCT
AAGTTCACGTGTTTGA
GTGAGCACGTGAGGCG
TCTGTCACGTGGATAA

Relative binding free energy, -0.15 kcal/mol:
TGGCCCACGTGGAGGG

Relative binding free energy, -0.12 kcal/mol:
TGTGGCACGTGCGAGC
GCGGTCACGTGGGTAA
TATGGCACGTGGGCTT
TAGGACACGTGCGTGG
ATGGTCACGTGGGCAG

Relative binding free energy, 0.24 kcal/mol:
AATTCCACGTGATGGT
GATAGCACGTGAGAGG
GCTCGCACGTGAGGGG
GAAGCCACGTGATGTT
ATGTTCACGTGTTACT
TGTCACACGTGATGGA

Relative binding free energy, 0.35 kcal/mol:
TAGATCACGTGTAAAT
TATATCACGTGAAGAT
GTGGTCACGTGAGGCG

Relative binding free energy, 0.21 kcal/mol:
AGGTTCACGTGGTATA
GAGGTCACGTGATGTC
CTTCTCACGTGTGAGT
TTACTCACGTGTGGAT
ATGTCCACGTGAGGGC

Relative binding free energy, -0.03 kcal/mol:
ATGATCACGTGGGCTT
GTGGCCACGTGACGTG
AGAGACACGTGGTATA

Relative binding free energy, 0.19 kcal/mol:
TAGCTCACGTGGGAGA
TTCGTCACGTGACTGT
GGAGTCACGTGTGGTT

Relative binding free energy, -0.08 kcal/mol:
GGAGGCACGTGGAGTA
TTGAGCACGTGTTTAA
GAGTGCACGTGGGTTG

Relative binding free energy, 0.03 kcal/mol:
TTTCGCACGTGGAATT
TTGATCACGTGGATTA
TGATCCACGTGGCGTT
ATGGACACGTGTGTAT
AATGGCACGTGTAAGA

Relative binding free energy, 0.07 kcal/mol:
AAAGACACGTGGTTAT
TAGATCACGTGGAGGA

Relative binding free energy, -0.27 kcal/mol:
TGCCGCACGTGCGGGT
GGGCGCACGTGGGCGG

Relative binding free energy, 0.49 kcal/mol:
GAGCTCACGTGTAGTT
GCTATCACGTGAGTGG

Relative binding free energy, -0.07 kcal/mol:
TGAGCCACGTGGATGT
TGGGGCACGTGATCGA
TCAAGCACGTGTTGGA
TAGAACACGTGTATGG

Relative binding free energy, -0.09 kcal/mol:
TTGTGCACGTGCTATA
TACGGCACGTGGAGTA

Relative binding free energy, 0.02 kcal/mol:
CATGTCACGTGTTTGA
TGATCCACGTGCGGGG
TTAGACACGTGGGCAT
GTGGGCACGTGATTAG
TCATACACGTGTAGGT

Relative binding free energy, 0.18 kcal/mol:
TCGTACACGTGGTTAG
TGAAGCACGTGAGGCG
TGCGGCACGTGAGAGA
GCAATCACGTGCGGGG

Relative binding free energy, 0.17 kcal/mol:
GTGAACACGTGGATGA
ACGGTCACGTGTAGGT
TGGTACACGTGATAGT
TTTATCACGTGCAGAG

Relative binding free energy, -0.2 kcal/mol:
TGGCGCACGTGTGGTC
GCAGGCACGTGGTATG

Relative binding free energy, 0.36 kcal/mol:
ATTTGCACGTGAATAA
TATTTCACGTGGTCTA

Relative binding free energy, -0.02 kcal/mol:
TGAAGCACGTGGCTTA
CGAGGCACGTGTGTCG
GTCGCCACGTGGAGTG

Relative binding free energy, 0.06 kcal/mol:
CGGGTCACGTGGAGCA
GTAGGCACGTGATCAT
TGGTGCACGTGTTCGA
GTGATCACGTGGAGTA

Relative binding free energy, 0.26 kcal/mol:
CTGATCACGTGTTGCT
GTTTGCACGTGACTAT
TAATTCACGTGGTTTC
TTATTCACGTGGCGGC
CAATGCACGTGAGGTT
GTAGTCACGTGAATAG
CTGTTCACGTGTTGGG

Relative binding free energy, -0.22 kcal/mol:
TCTCGCACGTGGGTTA

Relative binding free energy, 0.13 kcal/mol:
ATAGGCACGTGAGTGG

Relative binding free energy, -0.11 kcal/mol:
ATAGACACGTGGTAGG
TTGTACACGTGGCGAG
CTGGGCACGTGTTGCG
AGGCACACGTGGTGTG
ATGGGCACGTGCGTTG
ATGGGCACGTGCGTAA
GCTAGCACGTGGGAGG

Relative binding free energy, 0 kcal/mol:
GATTGCACGTGCGGAT
AACTGCACGTGTAGGT
TGTGACACGTGCGGCG
ATAGTCACGTGGTCTG
TACTGCACGTGCGGGG

Relative binding free energy, 0.05 kcal/mol:
TGTATCACGTGCTGCT
GTACTCACGTGTAGGG
ATATTCACGTGGTTGC
TATTACACGTGGTGGG
TGGTGCACGTGATAGA
TGTACCACGTGTTGTC
GTATGCACGTGGAGTT
AGGAGCACGTGATAAG

Relative binding free energy, 0.4 kcal/mol:
CGGCTCACGTGATAGG

Relative binding free energy, -0.19 kcal/mol:
GCATGCACGTGGGGTC
GTGGGCACGTGTACTG
TGCTCCACGTGGGGTA

Relative binding free energy, 0.29 kcal/mol:
GGTATCACGTGATGTT
GGGCTCACGTGGGCCT
AGTTTCACGTGTGCGT

Relative binding free energy, 0.08 kcal/mol:
ATGTGCACGTGAATAT
TTGGTCACGTGTTATT
GTGCACACGTGGGGAC

Relative binding free energy, 0.38 kcal/mol:
TCTTTCACGTGAATGT

Relative binding free energy, 0.32 kcal/mol:
ATATTCACGTGATTGT
ATTATCACGTGTGGCG

Relative binding free energy, 0.16 kcal/mol:
GAAGTCACGTGGGAGA
GTTATCACGTGTTTCG
TCCGTCACGTGTGTTG
TGCGGCACGTGAGTGA

Relative binding free energy, 0.27 kcal/mol:
GATATCACGTGGTGAA
GTTTTCACGTGGGGGT
GCTTACACGTGTGGGA
TTCCGCACGTGAAGGG

Relative binding free energy, -0.06 kcal/mol:
AGAGGCACGTGGAGCG
TGAGTCACGTGCCGTG
TTATACACGTGCTGTA

Relative binding free energy, 0.23 kcal/mol:
TTTTGCACGTGAGCTC
